Laboratory results reported in publication PMC4336329 (PLoS ONE, 2015).
Screen size: about 310,000 compounds; about 14,000 (4.5%) showed an effect of 50% or more. Effects have a minus sign here. The list shows a part of the results.

target: human ether-à-go-go-related gene (hERG) potassium channel (human, UniProt Q12809); assay: primary screen, population patch clamp on CHO cells stably expressing hERG
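Also: peak tail current of the secondary pulse compared with the same well before compound.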

Chain of human ether-à-go-go-related gene (hERG) potassium channel (Q12809 whole entry, looked up): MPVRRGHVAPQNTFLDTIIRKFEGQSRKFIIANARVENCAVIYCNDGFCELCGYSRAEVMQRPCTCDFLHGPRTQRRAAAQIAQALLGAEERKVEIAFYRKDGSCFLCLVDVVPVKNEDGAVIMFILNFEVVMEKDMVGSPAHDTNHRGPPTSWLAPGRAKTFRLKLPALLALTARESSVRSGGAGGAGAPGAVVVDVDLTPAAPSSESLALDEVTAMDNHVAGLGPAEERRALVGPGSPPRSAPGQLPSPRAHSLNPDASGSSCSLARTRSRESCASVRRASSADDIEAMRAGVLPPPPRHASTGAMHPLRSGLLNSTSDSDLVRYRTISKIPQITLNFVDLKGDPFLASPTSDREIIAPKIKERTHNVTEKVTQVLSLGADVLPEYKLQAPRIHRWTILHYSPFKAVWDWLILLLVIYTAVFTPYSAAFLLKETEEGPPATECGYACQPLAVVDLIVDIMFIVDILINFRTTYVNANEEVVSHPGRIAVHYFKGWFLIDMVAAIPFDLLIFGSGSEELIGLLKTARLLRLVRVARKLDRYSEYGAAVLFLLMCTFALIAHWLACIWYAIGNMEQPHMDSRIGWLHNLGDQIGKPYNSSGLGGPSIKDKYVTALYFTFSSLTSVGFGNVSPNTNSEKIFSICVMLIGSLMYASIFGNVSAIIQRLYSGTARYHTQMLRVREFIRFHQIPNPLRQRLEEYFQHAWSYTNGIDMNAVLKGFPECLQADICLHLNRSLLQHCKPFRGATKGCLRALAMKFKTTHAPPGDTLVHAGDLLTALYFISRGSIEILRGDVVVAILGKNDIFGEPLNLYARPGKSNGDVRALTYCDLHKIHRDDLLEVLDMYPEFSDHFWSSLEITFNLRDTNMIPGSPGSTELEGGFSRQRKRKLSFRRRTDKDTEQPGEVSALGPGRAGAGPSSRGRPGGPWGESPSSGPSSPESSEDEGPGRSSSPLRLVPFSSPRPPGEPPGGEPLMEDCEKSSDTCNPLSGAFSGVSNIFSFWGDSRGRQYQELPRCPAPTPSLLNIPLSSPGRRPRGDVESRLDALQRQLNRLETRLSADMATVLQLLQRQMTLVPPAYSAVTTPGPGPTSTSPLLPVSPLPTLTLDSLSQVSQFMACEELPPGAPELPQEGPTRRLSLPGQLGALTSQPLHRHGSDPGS

Row | Structure (SMILES) | hERG current change (%, negative = inhibition) at 10uM [%]
1 | CCn1c(SCc2ccc(C(=O)Nc3nccs3)cc2)nnc1-c1ccc(NC(C)=O)cc1 | 1.21
2 | CCOC(=O)c1cc(C(=O)n2cc(Cl)cn2)nn1C | 10.6
3 | Cc1ncc([N+](=O)[O-])n1CC(=O)Nc1ccc2c(c1)OCO2 | 19.5
4 | Cc1ccc(C(=O)NCCc2nnc(SCC(=O)Nc3cccc(C(=O)O)c3)n2C)cc1 | 10.3
5 | COC(CNS(=O)(=O)c1ccc(S(=O)(=O)NC2CC2)cc1)OC | 22.3
6 | COC(=O)c1ccc(C)c(-n2c(C)cc(C=O)c2C)c1 | 9.86
7 | CN(C)/C=C1\NC(=S)N(c2ccc(Cl)cc2)C1=O | 17.4
8 | Cc1ccc(C)n1-c1ccccc1N | 9.14
9 | COc1ccc(C2C(C(=O)c3ccccc3)=C(C)Nc3nc4ccccc4n32)c(OC)c1 (stereo not drawn) | 14.2
10 | Cc1ccc(S(=O)(=O)N2CCN(S(=O)(=O)N3CCOCC3)CC2)cc1 | 13.4
11 | O=C(Nc1ccccc1Cl)Oc1ccc(-c2ccccc2)cc1 | 8.23
12 | O=C(Nc1cccc(NC(=O)c2cccc(F)c2)c1)c1ccccc1 | 6.26
13 | O=C(COc1ccc(Cl)cc1)Nc1ccc2c(c1)OCO2 | 24.1
14 | Cc1cccc(N2CCN(Cc3nc(-c4ccccc4Cl)oc3C)CC2)n1 | -16.1
15 | N=C1C(c2nc3ccccc3s2)=C(O)CN1CCCO | -8.26
16 | Cc1cc(C(=O)O)cc(S(=O)(=O)N2CCOCC2)c1C | 1.95
17 | CC(C)c1ccc(Oc2cccc(C(=O)/C(C#N)=C/N(C)C)c2)cc1 | -14.6
18 | O=C(CN1CCc2ccccc2C1)Nc1cc(S(=O)(=O)N2CCOCC2)ccc1N1CCOCC1 | -8.99
19 | O=C(NCc1ccccc1)c1c(F)c(F)c(F)c(F)c1F | 12.8
20 | Cn1c(N2CCNCC2)nc2ccccc21 | -15.7
21 | Cc1nn(-c2ccc(Cl)cc2)c(=O)c2ccccc12 | 3.41
22 | Cc1ccc(C23CC4CC(CC(C(=O)NC(C)C(N)=O)(C4)C2)C3)cc1 (stereo not drawn) | 0.796
23 | CCCCNCc1cc(OCC)c(OCC(N)=O)cc1Br | 2.18

Row | Structure (SMILES) | hERG current change (%, negative = inhibition) at 10uM [%]
24 | CCOc1nc2cnccc2n(CC(=O)Nc2ccc(C)c(C)c2)c1=O | 21.8
25 | Cc1nc(-c2ccccc2)sc1-c1n[nH]c(=S)n1C | 25.4
26 | O=C1CN(C(=O)COC(=O)CNC(=O)c2ccccc2)c2ccccc2N1 | 7.58
27 | COc1cc(/C=C/C(=O)O)cc(OC)c1 | 2.55
28 | Cc1ccc2c(CC(=O)NCc3cccs3)coc2c1 | 5.8
29 | CNC(=O)c1c(NC(=O)C2=COCCO2)sc2c1CCC(C)C2 (stereo not drawn) | -15.1
30 | O=C(CCS(=O)(=O)c1cccs1)Nc1ccc(C(=O)NCc2ccccc2)cc1 | 19
31 | Cc1ccc(-c2n[nH]c(=O)c3ccccc23)cc1S(=O)(=O)N(C)CCO | -6.43
32 | N=c1c2ccccc2nnn1-c1cccc(C(F)(F)F)c1 | 7.6
33 | O=c1[nH]snc1N1CCOCC1 | 14.8
34 | O=C(Nc1cccc(Cl)c1)Nc1nnc(-c2ccncc2)s1 | -1.91
35 | CCOC(=O)[C@@H]1[C@H]2COc3cc(OC)ccc3[C@H]2N2C(=O)N(c3ccc(C)cc3)C(=O)[C@@]12C | 2.35
36 | CCOC(=O)C1CCCN(Cc2cn(C)nc2-c2ccc3c(c2)OCCO3)C1 (stereo not drawn) | -24.7
37 | O=C(C[n+]1cc(-c2ccc(Cl)cc2)n2c1CCC2)Nc1nc(-c2ccccc2)cs1.[Cl-] | -0.843
38 | C/C(=C\c1ccc2c(c1)OCO2)C(=O)c1c(C)cc(C)[nH]c1=O | 2.08
39 | O=C(O)C1C2CCC(O2)C1C(=O)Nc1cccc(F)c1 (stereo not drawn) | 8.09
40 | Cc1nc(C)c(C(=O)C2=C(O)C(=O)N(CCN(C)C)C2c2ccco2)s1 (stereo not drawn) | 6.65
41 | CN(C)Cc1c[nH]c2ccccc12 | 17
42 | Cn1cnc([N+](=O)[O-])c1SCC(O)CN1CCCCC1 (stereo not drawn) | 5.38
43 | CC(C)(C)NC(=O)COc1ccc(S(=O)(=O)N2CCCC2)cc1 | 17.1
44 | CCn1cc(-c2nnnn2-c2ccc(Cl)cc2)c(=O)c2ccccc21 | -58.8
45 | Cc1ccc(C(=O)COC(=O)CCc2nc3ccccc3[nH]c2=O)cc1C | 11.7
46 | COc1ccc(CN2CCC(C(=O)c3cccc(Cl)c3)CC2)cc1 | -78.7

Row | Structure (SMILES) | hERG current change (%, negative = inhibition) at 10uM [%]
47 | CCOc1ccc2c(c1)C(C)=CC(C)(C)N2 | 15.5
48 | Cc1ccc2nc(NC(=O)Cc3cccs3)sc2c1 | -1.43
49 | CCCCCC(=O)Nc1ccc(S(=O)(=O)Nc2nccc(C)n2)cc1 | 22.9
50 | CC1(C)C(=O)Nc2ccccc2N1C(=O)COC(=O)COc1ccc(C#N)cc1 | 8.82
51 | COc1ccc2c(c1)CC(=O)NC=C2 | 21.2
52 | Cc1ccc(-c2c(C(=O)N/N=C/c3ccc(OC(C)C)cc3)nnn2-c2nonc2N)cc1 | 7.64
53 | CCCN1Cc2cccc(C(=O)N3CCN(c4ccc(OC)cc4)CC3)c2C1=O | 3.41
54 | CCN1CCc2nc3ccccc3c(C(=O)Nc3ccc(NC(C)=O)cc3)c2C1 | 10.2
55 | NC(=O)C1(c2ccccc2)CCOCC1 | 16.3
56 | O=C(C1CCN(S(=O)(=O)c2ccc(F)cc2)CC1)N1CCOCC1 | 15.3
57 | COc1ccc(C(CCN2CCOCC2)c2c(OC)cc(OC)c3c(C)cc(=O)oc23)cc1 (stereo not drawn) | -69.2
58 | COc1ccc(OC)c(N(C)S(=O)(=O)c2cc3c(cc2C)NC(=O)CO3)c1 | -0.289
59 | Cc1cc(OCC(=O)N2CCN(c3ncccn3)CC2)ccc1Cl | -14.6
60 | Cc1cc2cc(CNC(=O)c3ccc4c(c3)OCO4)ccc2[nH]1 | -1.85
61 | CC(=O)Nc1ccc(C(=O)Nc2nnc(CCc3ccccc3)s2)cc1 | 10.7
62 | O=C(Cc1ccccc1F)Nc1ccc(Cl)nc1 | 0.824
63 | CCN(CC)S(=O)(=O)c1cccc(NC(=O)CCNC(=O)c2ccc([N+](=O)[O-])cc2)c1 | -62.4
64 | CCCOc1ccc(N2C(=O)CC(N(CCOC34CC5CC(CC(C5)C3)C4)C(C)=O)C2=O)cc1 (stereo not drawn) | -14.1
65 | CCCC(=O)Nc1ccccc1NC(=O)CN(C)S(=O)(=O)c1ccc(C)cc1 | 0.281
66 | Cc1cnc(NC(=O)C2CCC(C(C)(C)C)CC2)s1 (stereo not drawn) | 13.8
67 | CCn1c(SCC(=O)Nc2ccc3c(c2)OCCO3)nnc1C1CC1 | 9.05
68 | CC1=C(C/C(C)=C/c2ccccc2)/C(=C/CO)[C@@H]2OC(=O)O[C@]2(C)C12CC2 | 2.65
69 | COc1cccc(OCc2cc(C(=O)N3CCC(C(O)C(C)C)CC3)no2)c1 (stereo not drawn) | -16.1

Row | Structure (SMILES) | hERG current change (%, negative = inhibition) at 10uM [%]
70 | CCc1nnc(NC(=O)C(=O)NCCOC(=O)c2ccccc2)s1 | 18.4
71 | COC(=O)c1cn(C)c2ccc(S(=O)(=O)N3CC(C)CC(C)C3)cc2c1=O (stereo not drawn) | -5.76
72 | CCCc1ccc(C(=O)CCC(=O)O)cc1 | -4.35
73 | Cc1ccc(C(=O)CNc2ccc(C)c(Cl)c2)cc1 | 7.99
74 | Clc1ccc(-n2nnc(-c3cccnc3Cl)n2)cc1Cl | 21.2
75 | O=C(Nc1ccc(N2CCN(C(=O)c3ccc(Cl)cc3)CC2)cc1)c1ccc(Br)o1 | -75.3
76 | Cc1oc(-c2ccccc2F)nc1CS(=O)(=O)CC(=O)NCCN(C)C1CCCCC1 | -25.6
77 | CCn1cc(Cl)c(C(=O)NNC(=O)CCn2cc([N+](=O)[O-])cn2)n1 | 9.18
78 | Cc1cc(C)n(CC2CC(=O)N(c3ccccc3)C2=O)n1 (stereo not drawn) | 18.6
79 | CC1CCC2(CC1)NC(=S)N(C(C)(C)C)N2 (stereo not drawn) | 16.5
80 | CC(=O)Nc1ccc(NC(=O)CCOc2ccccc2C)cc1 | 9.83
81 | CC(=O)Nc1nnc(SCC(=O)NCc2ccc3c(c2)OCO3)s1 | 15.8
82 | Cc1cc(=O)c(C(=O)O)nn1-c1ccc(Cl)cc1 | 26.6
83 | Cc1cc(C#Cc2c(-c3ccccc3)n(C)c3ccccc23)ccc1F | -11.1
84 | COc1cc(NC(=S)NCCc2ccc(S(N)(=O)=O)cc2)c(OC)cc1Cl | 8.68
85 | Cc1c(Cl)cnc(NC(=O)COC(=O)c2ccc(S(=O)(=O)NCc3ccco3)cc2)c1Cl | -13.8
86 | CCN1CCN(c2ccc(S(=O)(=O)N3CCCCC3)cc2NC(=O)c2cc3ccccc3o2)CC1 | -53.7
87 | CC(=O)c1cn(CC(=O)Nc2ccccc2Cl)c2ccccc12 | 14.2
88 | COc1ccc(S(=O)(=O)N2CCC3(CC2)OCCN3S(=O)(=O)c2ccccc2)cc1OC | 0.907
89 | Cc1cc(C(=O)COC(=O)c2ccc(Br)o2)c(C)n1Cc1ccco1 | 9.95
90 | CCN(CC)S(=O)(=O)c1ccc(O)c(NC(=O)CN2CCc3ccccc3C2)c1 | 22.3
